# According to the BET-seq Pho4 binding data (Le et al. 2018):
# Some of the results follow. The energies were worked out here from pooled read counts, against the library average; single values are noisy.
# Target: T1, Pho4 (S. cerevisiae) (UniProt P07270)
# T1 sequence: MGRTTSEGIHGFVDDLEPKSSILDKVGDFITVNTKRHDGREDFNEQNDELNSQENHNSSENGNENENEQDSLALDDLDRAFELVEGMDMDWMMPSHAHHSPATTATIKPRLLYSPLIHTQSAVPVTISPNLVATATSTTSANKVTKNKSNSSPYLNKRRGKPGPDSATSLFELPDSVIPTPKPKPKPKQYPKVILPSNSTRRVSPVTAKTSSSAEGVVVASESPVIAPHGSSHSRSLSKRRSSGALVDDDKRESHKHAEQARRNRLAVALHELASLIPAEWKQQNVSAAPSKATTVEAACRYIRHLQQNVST
# Assay: relative binding free energy (BET-seq); higher = weaker binding
# Conditions: reference: library average
row,Sequence,relative binding free energy [kcal/mol]
1,AAATGCACGTGTCGGT,-0.01
2,TGTCTCACGTGATATG,0.18
3,TCGGTCACGTGGTTCG,0.14
4,AAGGTCACGTGGGGCG,-0.07
5,TAACTCACGTGAAGGG,0.32
6,TGTCACACGTGTCGGG,0.2
7,GTGTTCACGTGCGGCA,0.24
8,TATATCACGTGTTAGA,0.18
9,TCAGGCACGTGCTGTG,-0.11
10,TTCGGCACGTGATGAT,-0.09
11,TACAGCACGTGGTTTG,-0.07
12,TGCTGCACGTGTGAGA,0.11
13,AAAGGCACGTGTTGTG,-0.21
14,ATTGTCACGTGTATTA,0.12
15,AGAGTCACGTGATGAT,0.35
16,GTGTACACGTGTACTT,0.16
17,TGTTGCACGTGCGGTC,0.06
18,TTGGGCACGTGAGAGG,0.11
19,CGGATCACGTGATGGT,0.16
20,TAGAGCACGTGAGTGG,0.28

row,Sequence,relative binding free energy [kcal/mol]
1,CGATACACGTGTAGGG,0.11
2,TTGGGCACGTGTCTTC,-0.04
3,AATATCACGTGTGGAG,0.24
4,GGCGTCACGTGTTTTG,0.11
5,AATGGCACGTGGATCT,-0.03
6,TAATACACGTGCGGTT,0
7,ATATGCACGTGGACGT,-0.08
8,TGGCACACGTGTGCGT,-0.07
9,TCGATCACGTGCGGGT,0.14
10,GTTACCACGTGGCGGT,-0.08
11,TGTATCACGTGAGAAG,0.31
12,GTGTACACGTGGGTCA,-0.02
13,GGGGGCACGTGGTGGA,-0.07
14,AGGCGCACGTGGGGAG,-0.25
15,GGGTACACGTGTTATA,0
16,GATCGCACGTGAGTGG,0.24
17,TTGTACACGTGGAGAT,0.05
18,GGATTCACGTGTGTTA,0.41
19,TACGTCACGTGTTGGT,0.15
20,AAATTCACGTGATAGG,0.17

row,Sequence,relative binding free energy [kcal/mol]
1,CTGTGCACGTGACGGG,0.14
2,AGACTCACGTGGGTTG,0.02
3,TGGGGCACGTGCGCGC,-0.32
4,ACTTTCACGTGATTGG,0.21
5,ATTCGCACGTGTCTGT,-0.07
6,GTGTACACGTGGCGAG,-0.11
7,GGCGTCACGTGTAATA,0.34
8,TCAGACACGTGATTGG,0.15
9,GTGTGCACGTGGGTTA,-0.11
10,ATACACACGTGGATGT,0.15
11,TTCAACACGTGTATTT,0.03
12,GTTATCACGTGATCGG,0.34
13,TTTATCACGTGTGCGC,0.28
14,AAAGGCACGTGTATTT,-0.02
15,TTTAGCACGTGAATTA,0.3
16,GTGGGCACGTGTGCGC,-0.03
17,TGGGTCACGTGACGGG,0.15
18,GATTGCACGTGAATAG,0.34
